# Test results: PubChem BioAssay AID504333 (National Center for Advancing Translational Sciences (NCATS), 2011)
# Among all 360,000 compounds or so, about 16,000 (4.4%) were called active. Inconclusive results, whose numbers are uncertain, are shown with a selection of clear calls. The call rests on the fitted dose curve; in most records, active means well fitted inhibition curve with a large enough effect; inconclusive means small, poorly fitted or top-dose-only effect; inactive means no such curve, though single readings can be large or run the other way. Potencies beside an inconclusive call are fits to weak or partial responses and may not hold up.
# Biological target: Bromodomain adjacent to zinc finger domain protein 2B (Homo sapiens) (UniProt Q9UIF8)
# Chain of UniProt Q9UIF8 (Q9UIF8 whole entry, looked up, the tested form may be a part): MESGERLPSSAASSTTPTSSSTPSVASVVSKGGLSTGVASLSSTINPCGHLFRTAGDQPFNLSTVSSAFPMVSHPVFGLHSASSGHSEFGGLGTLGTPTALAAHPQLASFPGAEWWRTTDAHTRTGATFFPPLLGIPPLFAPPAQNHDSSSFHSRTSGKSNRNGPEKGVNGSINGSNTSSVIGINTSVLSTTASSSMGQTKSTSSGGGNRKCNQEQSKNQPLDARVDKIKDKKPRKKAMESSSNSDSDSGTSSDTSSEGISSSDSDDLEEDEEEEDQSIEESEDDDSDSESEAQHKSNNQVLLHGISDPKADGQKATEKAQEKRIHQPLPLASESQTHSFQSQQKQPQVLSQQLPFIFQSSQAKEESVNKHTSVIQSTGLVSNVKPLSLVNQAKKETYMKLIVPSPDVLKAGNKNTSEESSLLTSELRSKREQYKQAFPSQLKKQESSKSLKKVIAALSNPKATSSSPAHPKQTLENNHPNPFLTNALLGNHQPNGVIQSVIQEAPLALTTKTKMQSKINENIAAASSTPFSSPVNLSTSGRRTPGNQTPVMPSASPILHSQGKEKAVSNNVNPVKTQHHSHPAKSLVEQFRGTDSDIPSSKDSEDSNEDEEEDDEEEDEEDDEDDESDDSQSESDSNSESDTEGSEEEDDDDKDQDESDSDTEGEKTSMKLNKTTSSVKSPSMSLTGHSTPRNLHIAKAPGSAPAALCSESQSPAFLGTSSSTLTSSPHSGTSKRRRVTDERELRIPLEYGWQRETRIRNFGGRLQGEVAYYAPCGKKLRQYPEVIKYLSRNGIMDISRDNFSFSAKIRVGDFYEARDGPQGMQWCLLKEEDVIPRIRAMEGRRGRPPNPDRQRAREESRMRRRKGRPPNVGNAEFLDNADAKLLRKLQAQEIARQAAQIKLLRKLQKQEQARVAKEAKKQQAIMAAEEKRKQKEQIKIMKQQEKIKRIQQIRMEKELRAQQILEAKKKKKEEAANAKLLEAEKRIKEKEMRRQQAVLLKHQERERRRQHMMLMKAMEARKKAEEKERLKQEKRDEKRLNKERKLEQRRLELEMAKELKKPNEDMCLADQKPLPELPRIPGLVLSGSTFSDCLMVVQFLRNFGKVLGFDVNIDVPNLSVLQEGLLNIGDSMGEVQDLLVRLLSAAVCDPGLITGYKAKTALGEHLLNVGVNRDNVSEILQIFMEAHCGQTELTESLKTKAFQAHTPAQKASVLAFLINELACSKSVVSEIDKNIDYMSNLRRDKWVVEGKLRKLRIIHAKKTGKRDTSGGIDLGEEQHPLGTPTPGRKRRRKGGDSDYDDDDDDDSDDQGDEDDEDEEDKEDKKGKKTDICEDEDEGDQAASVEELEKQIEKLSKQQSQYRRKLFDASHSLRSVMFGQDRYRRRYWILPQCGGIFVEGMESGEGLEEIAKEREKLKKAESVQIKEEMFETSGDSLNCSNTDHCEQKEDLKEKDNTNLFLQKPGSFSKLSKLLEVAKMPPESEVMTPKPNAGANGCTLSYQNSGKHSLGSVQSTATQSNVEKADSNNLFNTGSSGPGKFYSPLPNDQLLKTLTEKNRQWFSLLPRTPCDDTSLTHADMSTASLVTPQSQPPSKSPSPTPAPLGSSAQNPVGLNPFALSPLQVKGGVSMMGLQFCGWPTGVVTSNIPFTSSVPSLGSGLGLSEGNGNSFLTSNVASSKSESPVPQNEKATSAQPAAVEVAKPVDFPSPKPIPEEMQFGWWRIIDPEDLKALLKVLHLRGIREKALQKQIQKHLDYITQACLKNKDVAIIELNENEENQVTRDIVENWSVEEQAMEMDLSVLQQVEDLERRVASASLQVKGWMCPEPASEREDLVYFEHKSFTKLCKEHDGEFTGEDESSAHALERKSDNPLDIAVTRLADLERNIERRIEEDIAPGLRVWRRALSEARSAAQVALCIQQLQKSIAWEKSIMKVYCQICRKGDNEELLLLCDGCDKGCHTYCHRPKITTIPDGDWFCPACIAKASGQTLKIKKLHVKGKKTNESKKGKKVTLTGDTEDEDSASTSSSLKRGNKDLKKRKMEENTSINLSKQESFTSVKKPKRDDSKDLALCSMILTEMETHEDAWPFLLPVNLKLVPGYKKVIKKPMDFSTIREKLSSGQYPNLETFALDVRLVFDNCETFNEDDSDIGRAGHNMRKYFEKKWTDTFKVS
# Assay: qHTS Assay for Inhibitors of BAZ2B; further: nearly all actives have a fitted effect of over 60% in size
# Settings: AlphaScreen BAZ2B-H3K14Ac peptide displacement; series mostly up to 114 µM
# How it was run: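 Complex of BAZ2B and biotin-H3K14Ac (50 nM apiece) forms over 30 min at RT, then faces library compounds up to 110 uM for another 30 min; AlphaScreen beads added, 20 min dark incubation, luminescence read.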
# Potency means the concentration at half of the fitted maximal effect; tags describe the fitted curve by direction and shape.
row,SMILES,Potency
1,Cc1cc(C(=O)N/N=C2\CCCC(C)C2)n[nH]1 (stereo unspecified),"inconclusive: 100 µM [inhibitor, single point]"
2,O=C(NCCc1ccccc1)C(=O)c1c(-c2ccccc2)[nH]c2ccccc12,"inconclusive: 79.4 µM [inhibitor, single point]"
3,COC(=O)C1=C(C)N(C)C(=O)NC1c1ccc(O)c(OC)c1 (stereo unspecified),inactive
4,CC(CN1c2ccccc2Sc2ccccc21)N(C)C (stereo unspecified),active: 44.7 µM
5,COC(=O)c1ccc(C2Nc3ccc(/C(C)=N/NC(=O)C(OC)c4ccccc4)cc3C3C=CCC32)cc1 (stereo unspecified),active: 56.2 µM
6,Cc1cc(/C=C2/NC(=O)N(c3ccccc3)C2=O)c(C)n1-c1cccnc1,"inconclusive: 50.1 µM [inhibitor, partial curve]"
7,COc1ccc(CC(=O)Nc2ccc(N(C)C)c3ccccc23)cc1,"inconclusive: 89.1 µM [inhibitor, single point]"
8,C#CCOCCOCCOCCNc1nc(N2CCN(C(=O)[C@H](C)n3cc(CCCN=C(N)N)nn3)CC2)nc(N2CCN(C(=O)[C@H](CCCCN)n3cc(CCCC)nn3)CC2)n1,"inconclusive: 89.1 µM [inhibitor, single point]"
9,COc1ccc(/C=N/Nc2ccc([N+](=O)[O-])cc2)cc1O,active: 50.1 µM
10,CCOC(=O)c1c2c3c(cccc3n(C)c1=O)C(=O)c1ccccc1-2,"inconclusive: 44.7 µM [inhibitor, partial curve]"
11,CC1CCN(CC(=O)Nc2ccc(S(=O)(=O)N3CCC(C)CC3)cc2)CC1,"inconclusive: 89.1 µM [inhibitor, single point]"
12,O=C(O)CN1C(=O)/C(=C/c2ccc(N3CCCCC3)o2)SC1=S,active: 35.5 µM
13,O=C(CSc1nnc(-c2ccc3c(c2)OCO3)o1)Nc1ncc(C(F)(F)F)cc1Cl,inactive
14,Cc1cc(OCC(=O)N(Cc2ccc(N(C)C)cc2)CC2CCCO2)ccc1Cl (stereo unspecified),active: 28.2 µM
15,Cc1cccc(CCNC(=O)c2cccc3c2C(=O)N(C2CCCCC2)C3)c1,"inconclusive: 39.8 µM [inhibitor, partial curve]"
16,S=C(Nc1ccc2[nH]ccc2c1)NC1CCCCC1,"inconclusive: 50.1 µM [inhibitor, partial curve]"
17,CCOc1ccc(-c2nc(CN(Cc3ccccc3)C[C@@H]3CCC(=O)N3)c(C)o2)cc1,"inconclusive: 56.2 µM [inhibitor, partial curve, poor fit]"
18,Nc1c(Nc2ccccc2)c2ccccc2oc1=O,"inconclusive: 89.1 µM [inhibitor, single point]"
19,Nc1nn(S(=O)(=O)c2ccccc2)cc1-c1ccc([N+](=O)[O-])cc1,"inconclusive: 44.7 µM [inhibitor, partial curve]"
20,Cc1ccccc1Nc1c([N+](=O)[O-])cncc1[N+](=O)[O-],"inconclusive: 89.1 µM [inhibitor, single point]"
21,O=c1c2c3c(sc2nc2n1CCCS2)CCCC3,inactive
22,CCC1CCCCN1CCCNC(=O)CCC(=O)N1CCOc2ccccc21 (stereo unspecified),inactive
23,O=C(N/C(=C/C=C\c1ccccc1)C(=O)N1CCOCC1)c1ccc(Br)cc1,"inconclusive: 79.4 µM [inhibitor, partial curve]"
24,Oc1ccccc1C1=Nc2ncnn2C(c2ccc(F)cc2)C1 (stereo unspecified),active: 56.2 µM
25,NNc1ncnc2c1cnn2-c1ccccc1,active: 28.2 µM
26,Cc1cc(NC(=O)NC2(C(F)(F)F)Oc3ccc(Cl)cc3O2)no1 (stereo unspecified),inactive

row,SMILES,Potency
1,CCn1cc2nc(SCC(=O)Nc3ccccc3C(F)(F)F)n(Cc3ccc(C)cc3)c(=O)c2n1,"inconclusive: 89.1 µM [inhibitor, single point]"
2,Cc1ccc(NC(=O)c2ccc3ncsc3c2)cc1S(=O)(=O)N(C)C,active: 56.2 µM
3,CC(C)C(=O)Nc1sc2c(c1C#N)CCCCC2,inactive
4,Cc1ccc(NC(=O)CN(C)C(=O)COc2cccc3cccnc23)cc1,active: 50.1 µM
5,CCSc1nnc(NC(=O)CSc2sc3c(O)cc(=O)[nH]c3c2C#N)s1,active: 79.4 µM
6,COc1ccc2nc(N)sc2c1,inactive
7,O=C(NC(Cc1c[nH]c2ccccc12)C(=O)N/N=C/c1cccc2ccccc12)c1cccs1 (stereo unspecified),"inconclusive: 39.8 µM [inhibitor, partial curve]"
8,COc1ccc(C2CC(=O)c3cc(-c4nc(-c5ccc(Cl)cc5)cs4)c(=O)[nH]c3C2)cc1OC (stereo unspecified),"inconclusive: 89.1 µM [inhibitor, single point]"
9,CC(=O)c1ccc(C(=O)NC2CCCN(Cc3ccccc3F)C2)cc1 (stereo unspecified),inactive
10,CCCCNC(=O)CNC(=O)c1nn(-c2ccc(OC)c(Cl)c2)c(=O)c2ccccc12,"inconclusive: 89.1 µM [inhibitor, single point]"
11,COc1ccc(C2c3c(n(C)c4ccccc34)C(=O)N2CC(=O)Nc2cccc(F)c2)cc1 (stereo unspecified),"inconclusive: 70.8 µM [inhibitor, single point]"
12,CCCc1cc(=O)[nH]c2nnc(SCC)n12,inactive
13,CN(CCOc1ccc(Cl)cc1)CC(O)c1ccccc1 (stereo unspecified),active: 20 µM
14,O=[N+]([O-])c1cc(N=Nc2ccc3ccccc3c2)ccc1O,"inconclusive: 7.94 µM [inhibitor, full curve]"
15,Cc1cc2cc(CNC(=S)NCc3ccccc3)ccc2n1C,active: 25.1 µM
16,COc1cccc2cc(C(=O)C3=C(O)C(=O)N(CCN4CCOCC4)C3c3cccc(Cl)c3)oc12 (stereo unspecified),"inconclusive: 50.1 µM [inhibitor, partial curve]"
17,O=C(COc1ccc2ccccc2c1)NC1CC(=O)N(c2cccc(F)c2)C1 (stereo unspecified),inactive
18,Cc1c(C#N)c(N=CN(C)C)c(C(=O)c2ccc(Br)cc2)n1-c1ccc(Cl)cc1,"inconclusive: 31.6 µM [inhibitor, full curve, poor fit]"
19,CC(C)(C)OC(=O)CNC(=O)c1[nH]cnc1C(=O)NCCCCCN,"inconclusive: 89.1 µM [inhibitor, single point]"
20,Cc1c(Cl)cccc1NS(=O)(=O)c1ccc2c(c1)C1C=CCC1C(c1ccc(C(=O)O)cc1)N2 (stereo unspecified),active: 44.7 µM
21,CCOC(=O)C1=C(C)N=c2s/c(=C/c3cccc(OCC(=O)O)c3)c(=O)n2C1c1ccc(F)cc1 (stereo unspecified),"inconclusive: 79.4 µM [inhibitor, single point]"
22,COc1ccc([C@H]2[C@H](C(=O)OC(C)(C)C)N3N=Cc4ccccc4C3C23C(=O)c2ccccc2C3=O)cc1OC (stereo partly specified),active: 17.8 µM
23,O=C(Nc1ccc(C#Cc2ccccc2)cc1)C1CC1,inactive
24,CCOC(=O)c1cc(C)n(-c2ccc(OC)c(OC)c2)c1C,"inconclusive: 50.1 µM [inhibitor, partial curve]"
25,COc1ccc(-n2nnc3c(SCC(=O)Nc4ccc5c(c4)OCCO5)ncnc32)cc1,inactive
26,COc1ccc(Cn2c(C(=O)O)c(CNCCc3cc(OC)ccc3OC)c3ccc(C)cc32)cc1,active: 50.1 µM

row,SMILES,Potency
1,O=c1oc2ccccc2cc1-c1csc(NN=C2CCCC2)n1,inactive
2,CN(CC(=O)NCc1ccco1)S(=O)(=O)c1cccc2cccnc12,inactive
3,Cc1ccc(CC(=O)NCCCc2ccccc2)cc1,inactive
4,COc1cc(CNC(C)(C)CO)cc(Br)c1OCc1ccc(Cl)cc1,inactive
5,c1ccc2c(c1)nc(N1CCCCCC1)c1ccccc12,inactive
6,O=C(c1cccn1-c1nnc(N2CCCC2)s1)N1CCN(c2ccc(Cl)cc2)CC1,"inconclusive: 70.8 µM [inhibitor, single point]"
7,Cc1csc(=O)n1CC(=O)OCc1cccc2ccccc12,"inconclusive: 89.1 µM [inhibitor, single point]"
8,CCOC(=O)c1cnc(SCC(=O)N2CCC(C(N)=O)CC2)nc1N,inactive
9,COc1cc(NS(=O)(=O)c2ccc3c(c2)n(C)c(=O)n3C)cc(OC)c1,"inconclusive: 89.1 µM [inhibitor, single point]"
10,C/C(=C/c1ccccc1)C(=O)N1CCN(c2ccc(F)cc2)CC1,"inconclusive: 89.1 µM [inhibitor, single point]"
11,CN(C(=O)c1ccccc1Cl)c1ccccc1C(=O)NCCc1ccccc1,inactive
12,Cc1ccc([N+](=O)[O-])c2c1C(N1CCCC1)C(C)(C)O2 (stereo unspecified),"inconclusive: 79.4 µM [inhibitor, single point]"
13,COc1ccc(NS(=O)(=O)c2ccc3[nH]c4c(c3c2)CCCC4)cc1OC,"inconclusive: 50.1 µM [inhibitor, partial curve]"
14,CNC(=O)c1cccc2nc3ccccc3nc12,active: 50.1 µM
15,CC1CC(C)(C)NC(=S)N1CCC(=O)N1CCN(Cc2ccccc2)CC1 (stereo unspecified),inactive
16,CCCCOc1cccc(C(=O)N(Cc2ccc(C)o2)c2ccccn2)c1,inactive
17,COc1ccc(/C=C/C(=O)NCCc2c[nH]c3ccccc23)cc1OC,"inconclusive: 89.1 µM [inhibitor, single point]"
18,O=C(O)c1cccc(NC(=S)N/N=C/c2cccnc2)c1,"inconclusive: 89.1 µM [inhibitor, single point]"
19,Cc1ccc2nc(SCc3nc4ccccc4c(=O)[nH]3)[nH]c2c1,inactive
20,Cc1cc(N2CCN(Cc3cn(C)nc3-c3cccc(Cl)c3)CC2)cc(C)n1,active: 44.7 µM
21,CCC(C)n1c(S(=O)(=O)O)nc2ccccc21 (stereo unspecified),"inconclusive: 25.1 µM [inhibitor, single point]"
22,CC(C)(C)NC(=O)NC(=O)CSc1ccc(S(=O)(=O)N2CCCCC2)cn1,inactive
23,CC(=O)Nc1ccc2c(COC(=O)CC3Sc4ccccc4NC3=O)cc(=O)oc2c1 (stereo unspecified),active: 56.2 µM
24,Cc1ccccc1NCCC(=O)Nc1ccc(Cl)cc1,"inconclusive: 70.8 µM [inhibitor, single point]"
